Test results taken from PMC5834211.
Results are given in words; binding and its absence hold for the method and conditions named. In cells and extracts the contact can be indirect. Some results given as binding are weak or reduced against the parent protein; the word gives no strength. Where a sequence is shown, tags or fusion partners need not be part of it.

Key:
Test in all cases: co-IP; 293T cells cotransfected; whole cell lysates immunoprecipitated with anti-Flag beads, immunoblotted with anti-HA and anti-Flag (S5A, Fig 5I, S6A); in S5E with 20 ng Flag-MDA5 and intracellular HMW Poly(I:C) at the indicated time points
[1] = molecular target: T1, Flag-mMAVS (mouse) (UniProt Q8VCF0)
T1 sequence: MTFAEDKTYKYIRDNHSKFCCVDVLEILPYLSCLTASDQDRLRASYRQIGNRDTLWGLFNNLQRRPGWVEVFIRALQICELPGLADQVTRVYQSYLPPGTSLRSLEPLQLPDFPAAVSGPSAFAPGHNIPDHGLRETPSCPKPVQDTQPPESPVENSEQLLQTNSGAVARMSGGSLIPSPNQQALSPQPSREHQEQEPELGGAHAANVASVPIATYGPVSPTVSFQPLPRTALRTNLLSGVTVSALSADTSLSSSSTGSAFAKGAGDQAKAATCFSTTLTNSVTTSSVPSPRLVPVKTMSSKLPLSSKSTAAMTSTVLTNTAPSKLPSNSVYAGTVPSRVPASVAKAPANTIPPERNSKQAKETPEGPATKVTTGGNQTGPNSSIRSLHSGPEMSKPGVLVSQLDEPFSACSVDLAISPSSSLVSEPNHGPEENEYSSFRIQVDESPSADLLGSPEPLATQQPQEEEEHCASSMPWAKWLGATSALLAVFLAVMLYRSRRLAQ

[2] = molecular target: T2, Flag-mMDA5 (mouse) (UniProt Q8R5F7)
T2 sequence: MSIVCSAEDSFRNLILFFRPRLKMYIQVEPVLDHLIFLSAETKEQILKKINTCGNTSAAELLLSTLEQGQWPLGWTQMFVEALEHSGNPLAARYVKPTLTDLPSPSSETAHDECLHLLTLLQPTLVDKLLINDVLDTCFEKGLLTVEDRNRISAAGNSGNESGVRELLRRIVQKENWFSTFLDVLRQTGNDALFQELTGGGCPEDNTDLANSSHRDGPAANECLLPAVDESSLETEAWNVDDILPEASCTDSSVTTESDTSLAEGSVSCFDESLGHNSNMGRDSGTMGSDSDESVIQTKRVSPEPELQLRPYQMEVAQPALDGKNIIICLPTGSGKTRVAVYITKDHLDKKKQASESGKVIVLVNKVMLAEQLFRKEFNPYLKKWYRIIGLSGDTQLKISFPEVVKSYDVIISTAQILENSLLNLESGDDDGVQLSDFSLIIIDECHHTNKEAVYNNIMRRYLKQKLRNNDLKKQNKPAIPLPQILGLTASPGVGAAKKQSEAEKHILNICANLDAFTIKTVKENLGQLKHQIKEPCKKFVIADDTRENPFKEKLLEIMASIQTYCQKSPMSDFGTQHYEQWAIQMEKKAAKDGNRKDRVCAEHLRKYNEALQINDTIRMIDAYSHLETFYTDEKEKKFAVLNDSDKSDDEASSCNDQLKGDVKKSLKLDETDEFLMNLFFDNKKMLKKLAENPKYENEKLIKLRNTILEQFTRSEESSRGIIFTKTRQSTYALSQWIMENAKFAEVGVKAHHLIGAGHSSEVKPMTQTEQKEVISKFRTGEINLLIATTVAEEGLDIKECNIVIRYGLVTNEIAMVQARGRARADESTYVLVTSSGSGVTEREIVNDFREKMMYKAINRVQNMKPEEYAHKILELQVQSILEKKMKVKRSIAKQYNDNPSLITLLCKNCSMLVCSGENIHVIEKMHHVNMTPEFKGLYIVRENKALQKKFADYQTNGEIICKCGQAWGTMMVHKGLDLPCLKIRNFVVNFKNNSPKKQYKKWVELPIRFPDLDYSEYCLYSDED

[3] = molecular target: T3, Flag-mRIG-I (mouse) (UniProt Q6Q899)
T3 sequence: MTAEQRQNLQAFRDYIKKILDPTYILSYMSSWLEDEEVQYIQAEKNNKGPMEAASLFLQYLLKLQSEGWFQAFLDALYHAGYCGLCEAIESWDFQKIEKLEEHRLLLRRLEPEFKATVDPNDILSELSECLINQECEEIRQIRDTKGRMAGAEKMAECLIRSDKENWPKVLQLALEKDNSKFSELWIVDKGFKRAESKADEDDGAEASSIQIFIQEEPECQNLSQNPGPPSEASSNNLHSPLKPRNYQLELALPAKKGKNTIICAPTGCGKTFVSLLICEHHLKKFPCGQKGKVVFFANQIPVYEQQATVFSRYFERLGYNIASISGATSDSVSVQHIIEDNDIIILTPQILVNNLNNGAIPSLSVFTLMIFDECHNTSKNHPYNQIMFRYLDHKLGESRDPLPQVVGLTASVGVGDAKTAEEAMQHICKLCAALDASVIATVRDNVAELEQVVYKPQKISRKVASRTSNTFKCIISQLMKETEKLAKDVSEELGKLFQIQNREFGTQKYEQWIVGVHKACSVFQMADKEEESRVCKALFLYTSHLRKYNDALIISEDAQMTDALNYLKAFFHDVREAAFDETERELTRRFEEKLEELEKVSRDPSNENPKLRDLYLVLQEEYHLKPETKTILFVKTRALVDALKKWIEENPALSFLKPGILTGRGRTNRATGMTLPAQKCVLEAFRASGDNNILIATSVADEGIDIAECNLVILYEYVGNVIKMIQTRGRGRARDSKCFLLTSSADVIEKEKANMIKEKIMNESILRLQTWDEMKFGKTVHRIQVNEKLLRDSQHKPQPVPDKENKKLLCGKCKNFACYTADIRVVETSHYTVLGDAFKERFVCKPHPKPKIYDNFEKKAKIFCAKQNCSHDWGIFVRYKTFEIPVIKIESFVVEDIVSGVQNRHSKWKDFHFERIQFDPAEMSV

binding [1]: no binding | binding [2]: binds | binding [3]: no binding
B1: HA-mouse (m)DHX29 (protein, UniProt Q6PGC1 1-1365)
chain: MGGKNKKHKAPGAAAMRAAVSASRARSAEAGAVGEAQSKKPVARPAPAVPTGAREPRVKQGPKIYSFNSANDSGGSANLDKSILKVVINNKLEQRIIGVINEHKKQNSDRGAISGRLSAKKLQDLYMALQAFSFKTKDIEDAMTNTLLHGGDLHSALDWLCLNLSDDALPEGFSQEFEEQQPKSRPKFQSVQIQATLSPPQQTKTKRQEEDPKIKPKKEETTVEVNMKEWILRYAEQQDEEEKGEGSKGLEEEEKFDPNQRYLNLAARLLDAKEQAAAFKLEKNKQGQKEAQEKIRKFQREMETLEDHPIFNPAIKISHQQNEKKKPAPATEAESALNLNLFEKSAAATEEEKGKKKEPHDVRNFDYTARSWTGKSPKQFLIDWVRKNLPKSPNPSFEKVAVGRYWKCRVRVVRSEDDVLVVCPTILTEDGMQAQHLGATLALYRLVKGQSVHQLLPPTYRDVWLEWSDEEKKREELNKMETNKPRDLFIAKLLNKLKQQQQQQQQQRPESEKGGSEDPEESWENLVSDEDLAALSLEPTSAEDLAPVRSLFRRLQSTPKYQRLLKERQQLPVFKHRDSIVETLKRHRVVVVAGETGSGKSTQVPHFLLEDLLLDECGARKCNIVCTQPRRISAVSLATRVCEELGCESGPGGRNSLCGYQIRMESRASESTRLLYCTTGVLLRKLQEDGLLADVSHVIVDEVHERSVQSDFLLVILKEILQKRSDLHLILMSATVDSDKFSTYFTHCPILRISGRSYPVEVFHLEDIVEETGFVLEKDSEYCQKFLEEEEEITINVTSKAGGVKKYQEYIPVQSGASPELNPFYQKYSSRTQHAILYMNPHKINLDLILELLVYLDKSPQFRNIEGAVLIFLPGLAHIQQLYDLLSSDRRFYSERYQVIALHSVLSTQDQAAAFMFPPPGVRKIVLATNIAETGITIPDVVFVIDTGRTKENKYHESSQMSSLVETFVSKASALQRQGRAGRVRDGFCFRLYTRERFEGFLDYSVPEILRVPLEELCLHIMKCDLGSPEDFLSKALDPPQLQVISNAMNLLRKIGACEPNEPKLTPLGQHLAALPVNVKIGKMLIFGAIFGCLEPVATLAAVMTEKSPFITPIGRKDEADLAKSSLAVADSDHLTIYNAYLGWKKAQQEGGFRSEISYCQRNFLNRTSLLTLEDVKQELMKLVKAAGFSSSPSWEGRKGPQTLSFQDIALLKAVLAAGLYDSVGKIMCTKSVDVTEKLACMVETAQGKAQVHPSSVNRDLQTYGWLLYQEKVRYTRVYLRETTLITPFPVLLFGGDIEVQHRERLLSVDGWIYFQAPVKIAVIFKQLRVLIDSVLRKKLENPKMSLENDKILQIITELIKTENN
